Assay results as given in publication PMC12040169 (PLOS Biology, 2025).
The list shows a part of the results.

Tested on: T1, C. trachomatis L2/434/Bu expressing GFP (CTL2-GFP)
T1 construct: L2/434/Bu GFP intracellular growth in HeLa cells
Design: species or system HeLa; C. trachomatis total inclusion area by high-content imaging, normalised to DMSO
Details: total inclusion area; 28.5 h, 10 µM; inhibitor
In short: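 High-content images of fixed, Hoechst-stained infected cultures supply inclusion area and count (growth) plus nuclei number (viability), complementing bulk GFP/resorufin fluorescence. MIC determination is unchanged from the primary assay.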

SMILES	% of control remaining
Cc1cc(C(=O)N2CCC(c3nccn3C)CC2)ccc1F [CBK304355]	93.6929
O=[N+]([O-])c1ccccc1/C=C\C=N\n1c(S)nnc1-c1ccc(Cl)cc1Cl [CBK264405]	112.59
COc1ccccc1NC(=O)CN(c1ccc(Br)cc1)S(C)(=O)=O [CBK265254]	98.5511
OCc1nnn(-c2ccncc2)c1CO [CBK288549]	81.8037
Cc1ccc(S(=O)(=O)NCCCN2CCOCC2)c(C)c1C [CBK264990]	112.524
Cc1csc(C(Cc2ccsc2)NC(=O)Cn2ccnc2)n1 (stereo not shown) [CBK285113]	123.59
CC1CCN(CCCNS(=O)(=O)c2ccc(N3CCCC3=O)cc2)CC1 [CBK304220]	58.9428
Cc1cccc(C2N3CCC4(CC3)c3[nH]c5ccccc5c3CCN24)n1 (stereo not shown) [CBK284435]	82.8166
CC1CCCCN1Cc1nc2c(c(=O)n(C)c(=O)n2C)n1Cc1ccc(Br)cc1 (stereo not shown) [CBK269184]	110.259
OCc1cccc(-c2nccnc2NCc2ccncc2)c1 [CBK037446]	88.4445
O=C(c1ccccc1)c1ccc2[nH]nnc2c1 [CBK091608]	74.6939
Cc1cc(C)c(NC(=O)CSc2n[nH]c(=O)n2C2CC2)c(C)c1 [CBK295598]	97.2564
Fc1ccc(-c2cn(-c3ccc(OCc4ccccc4)c(F)c3)nn2)cc1 [CBK113121]	120.523
Cc1nc2ccc(C(=O)NC(C)Cc3cccs3)cc2[nH]1 (stereo not shown) [CBK282487]	121.9
Cc1cc(C)cc(N(CC(=O)Nc2ccccc2-c2ccccc2)S(=O)(=O)c2ccccc2)c1 [CBK265933]	72.2523
COc1ccc(OC)c(NC(=O)CSc2ccc(-c3ccncc3)nn2)c1 [CBK287637]	112.665
CC1(NC(=O)CC2C(=O)NCCN2Cc2cccc(F)c2)CCC1 (stereo not shown) [CBK281611]	121.598
CC(=O)N[C@H]1CO[C@H]2[C@@H]1OC[C@H]2OC(=O)Nc1ccc(Oc2ccccc2)cc1 [CBK289470]	76.7972
COc1ccc(C(C)c2cc3c(cc2OC)OCO3)c(F)c1 (stereo not shown) [CBK200112]	10.1402
O=C(O)C1C2C=CC(C2)C1C(=O)N1CCN(Cc2ccc(Cl)cc2)CC1 (stereo not shown) [CBK270318]	79.9935
N#CC1=C(Nc2ccccc2)Oc2cc(N)ccc2C1c1cccnc1 (stereo not shown) [CBK269435]	85.2012
Cc1cc(NCCc2ccc(=O)[nH]c2)nc(-c2cc(F)c(F)cc2F)n1 [CBK144636C]	93.8335
COc1ccccc1NC(=O)CCn1c(C(F)F)cc2cccnc21 [CBK285065]	121.792
Cc1ccc([N+](=O)[O-])c(OCCN2CCN(Cc3ccccc3)CC2)c1 [CBK268568G]	97.006
COc1cc2c(c(OC)c1OC)C(c1ccccc1C)CC(=O)N2 (stereo not shown) [CBK288205]	80.1772
C#CCNCc1ccc(O)cc1 [CBK013235C]	54.1112

SMILES	% of control remaining
Cc1ccc2c(c1)OC(C)(C)CC2NS(=O)(=O)N1CCN(C)CC1 (stereo not shown) [CBK307271]	75.0956
N#CCc1ccc(OC(=O)c2cccnc2)cc1 [CBK090304]	18.9365
O=S(=O)(c1ccc(C(F)(F)F)cc1Cl)N1CCN(Cc2cccc(Br)c2)CC1 [CBK063163]	89.5171
CCCC(=O)NC(NC(=S)Nc1ccccc1Cl)C(Cl)(Cl)Cl (stereo not shown) [CBK261026]	75.8962
CCCCSc1nc(N)cc(N2CCC(N3CCCC3=O)CC2)n1 [CBK307525]	69.9201
O=[N+]([O-])c1cccc(-c2cc(Nc3ccc4[nH]ccc4c3)ncn2)c1 [CBK090860]	158.831
O=C(Nc1ccc(N2CCOCC2)c(Cl)c1)c1cccc(-n2cnnc2)c1 [CBK269853]	106.563
CCn1c(SCC(=O)NC2CCCCC2C)nnc1-c1cc2cccc(OC)c2o1 (stereo not shown) [CBK267148]	128.295
CC(=O)NC(CSc1cc(C)nc2ccc(F)cc12)C(=O)O (stereo not shown) [CBK286815]	117.838
COCC(=O)N1CCN(Cc2cccc(-c3ccccn3)c2)CC1 [CBK304035]	81.2217
CNC(=O)CN1C(=O)CC2(C1=O)C(=O)N(CCOC)c1ccc(OC)cc12 (stereo not shown) [CBK075144]	99.5547
Cc1cc(C)c2[nH]c(CC(=O)N(C)CCN(C)C)nc2c1 [CBK282727]	120.537
CC(CCCC(C)(C)O)Nc1cncc(-c2ccc(C(N)=O)cc2)n1 (stereo not shown) [CBK066071]	103.029
O=C(Cc1c[nH]c2ccccc12)Nc1cccnc1N1CCNCC1 [CBK028265T]	81.2155
CCN(CC)CCCNc1nc2ccc(O)cc2s1 [CBK023880C]	69.6826
CC(=O)Oc1ccc(C(=O)NCc2ccc3c(c2)OCO3)cc1 [CBK264372]	102.25
COc1ccc(C(=O)NCC(=O)Nc2ccc(N3CCCCC3)cc2)cc1OC [CBK295199]	100.222
Cc1nc(CC(NC(=O)C(c2ccccc2)c2ccccc2)c2ccc(F)cc2)cc(=O)[nH]1 (stereo not shown) [CBK285669]	68.1013
CCN(CC)C(=O)CNS(=O)(=O)c1cc(Br)c(Cl)s1 [CBK034500]	86.9184
OC1(CN2CCCC2)CCN(Cc2sccc2Cl)CC1 [CBK307491]	33.3108
COc1cccc(C(=O)C2=C(O)C(=O)N(CCCn3ccnc3)C2c2cccc(F)c2)c1 (stereo not shown) [CBK266419]	97.418
Cc1ccc(Cn2ncc3c(NCCCN4CCOCC4)ncnc32)cc1 [CBK077470]	94.9587
Cc1cc(N2CCN(c3ccc(O)cc3)CC2)n2nc(-c3nccn3C)cc2n1 [CBK286188]	139.663
Cc1cccc(NC(=S)NNC(=O)CCC(=O)O)c1 [CBK261542]	94.5859
CC1=C(C(=O)OC(C)C)C(c2cccc(I)c2)C2=C(CCCC2=O)N1 (stereo not shown) [CBK026317]	41.023
c1ccc(Cn2cc(-c3nccnc3OC3CCCCC3)cn2)cc1 [CBK107092]	107.615
